For this assay, the target named is Retinoic acid receptor RXR-alpha (Homo sapiens) (UniProt P19793). The assay can be described thus: qHTS assay for small molecule antagonists of retinoid X receptor alpha signaling (AID 588546). Conditions: HEK293T RXRa-UAS-bla, beta-lactamase ratio, antagonist mode. In a few lines: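 Beta-lactamase reporter inhibition, read as CCF4 fluorescence ratio (ex 405, em 460/530 nm) after 2 h at RT. HEK293T UAS-bla cells, 2500/well, were stimulated with 9-cis-RA at 500 or 100 nM final alongside test compound for 18 h at 37 C.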
Chain of UniProt P19793 (P19793 whole entry, looked up): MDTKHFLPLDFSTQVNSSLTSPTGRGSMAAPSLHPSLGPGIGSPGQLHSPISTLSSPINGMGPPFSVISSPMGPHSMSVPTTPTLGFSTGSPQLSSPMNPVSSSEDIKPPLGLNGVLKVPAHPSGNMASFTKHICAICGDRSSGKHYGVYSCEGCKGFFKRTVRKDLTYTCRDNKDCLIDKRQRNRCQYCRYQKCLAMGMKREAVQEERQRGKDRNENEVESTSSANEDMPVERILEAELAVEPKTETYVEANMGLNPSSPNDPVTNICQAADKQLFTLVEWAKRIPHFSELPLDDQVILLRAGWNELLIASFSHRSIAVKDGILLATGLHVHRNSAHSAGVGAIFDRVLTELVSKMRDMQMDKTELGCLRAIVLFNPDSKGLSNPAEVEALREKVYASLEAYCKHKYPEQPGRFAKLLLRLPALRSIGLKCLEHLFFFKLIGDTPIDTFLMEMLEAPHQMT
A general note: qHTS replaces the single test concentration by a dilution series.

Inconclusive results are not listed. Calls come from the whole dose curve; as a rule, active = well fitted inhibition curve with a large enough effect in the signal ratio, with a control signal flat (not every such curve was filed as active); inconclusive = small, poorly fitted or top-dose-only effect, or effect the other way, or a change in a side signal; inactive = no such curve, though single readings can be large or run the other way; the % refers to the signal ratio. The source holds more than one record for some entries. This is not the full list of results. An entry can have further records. Results that share an entry are repeated measurements in other runs, samples, wells, individuals or studies.
% is set by controls: 0 for no effect and ±100 for the full control effect.

Regarding `CCOP(=S)(OCC)Oc1nc(Cl)c(Cl)cc1Cl`, the max response result was “inactive: -7.75, 1.08, -36.1, -4.87% [separate samples]”.

The record behind these values is PubChem BioAssay (NCATS).
